Measurements reported in article PMC9911399, “Two distinct binding modes provide the RNA-binding protein RbFox with extraordinary sequence specificity”.
Numbering of substitutions follows the chain as printed; changes in the protein carry UniProt numbers. The list shows a part of the results.

T1: RBFOX1 RRM RbFoxmut (Fox-RRM*) (Homo sapiens, UniProt Q9NWB1 109-208, R118D;E147R;N151S;E152T)
T1 sequence: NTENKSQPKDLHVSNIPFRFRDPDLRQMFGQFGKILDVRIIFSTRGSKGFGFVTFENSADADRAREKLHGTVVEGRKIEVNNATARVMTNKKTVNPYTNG

B1: UGUGCAU (DNA:RNA)
RNA: GGGAGACCGGAAUUCAGAUUGUCCUGUGCAUUUAAAUCCCGUCGUAGCCACCA
DNA 1: CAATCTGAATTCCGGTCTCCC
DNA 2: TGGTGGCTACGACGGGATT
B2: GCGUACU (DNA:RNA)
RNA: B1 RNA with U25G, G26C, U27G, G28U, C29A, A30C
DNA 1: CAATCTGAATTCCGGTCTCCC
DNA 2: TGGTGGCTACGACGGGATT
B3: AAAGAAC (DNA:RNA)
RNA: B1 RNA with U25A, G26A, U27A, C29A, U31C
DNA 1: CAATCTGAATTCCGGTCTCCC
DNA 2: TGGTGGCTACGACGGGATT
B4: UAGCUUC (DNA:RNA)
RNA: B1 RNA with G26A, U27G, G28C, C29U, A30U, U31C
DNA 1: CAATCTGAATTCCGGTCTCCC
DNA 2: TGGTGGCTACGACGGGATT
B5: GGGGGAA (DNA:RNA)
RNA: B1 RNA with U25G, U27G, C29G, U31A
DNA 1: CAATCTGAATTCCGGTCTCCC
DNA 2: TGGTGGCTACGACGGGATT
B6: UCAGGUA (DNA:RNA)
RNA: B1 RNA with G26C, U27A, C29G, A30U, U31A
DNA 1: CAATCTGAATTCCGGTCTCCC
DNA 2: TGGTGGCTACGACGGGATT
B7: CGGAAAG (DNA:RNA)
RNA: B1 RNA with U25C, U27G, G28A, C29A, U31G
DNA 1: CAATCTGAATTCCGGTCTCCC
DNA 2: TGGTGGCTACGACGGGATT
B8: GCUUUCC (DNA:RNA)
RNA: B1 RNA with U25G, G26C, G28U, C29U, A30C, U31C
DNA 1: CAATCTGAATTCCGGTCTCCC
DNA 2: TGGTGGCTACGACGGGATT
B9: GACCGUU (DNA:RNA)
RNA: B1 RNA with U25G, G26A, U27C, G28C, C29G, A30U
DNA 1: CAATCTGAATTCCGGTCTCCC
DNA 2: TGGTGGCTACGACGGGATT
B10: UUUACAC (DNA:RNA)
RNA: B1 RNA with G26U, G28A, U31C
DNA 1: CAATCTGAATTCCGGTCTCCC
DNA 2: TGGTGGCTACGACGGGATT
B11: GGGAUAU (DNA:RNA)
RNA: B1 RNA with U25G, U27G, G28A, C29U
DNA 1: CAATCTGAATTCCGGTCTCCC
DNA 2: TGGTGGCTACGACGGGATT
B12: UCGGAGC (DNA:RNA)
RNA: B1 RNA with G26C, U27G, C29A, A30G, U31C
DNA 1: CAATCTGAATTCCGGTCTCCC
DNA 2: TGGTGGCTACGACGGGATT
B13: ACACUCU (DNA:RNA)
RNA: B1 RNA with U25A, G26C, U27A, G28C, C29U, A30C
DNA 1: CAATCTGAATTCCGGTCTCCC
DNA 2: TGGTGGCTACGACGGGATT
B14: UCACUAG (DNA:RNA)
RNA: B1 RNA with G26C, U27A, G28C, C29U, U31G
DNA 1: CAATCTGAATTCCGGTCTCCC
DNA 2: TGGTGGCTACGACGGGATT
B15: AGCAAUC (DNA:RNA)
RNA: B1 RNA with U25A, U27C, G28A, C29A, A30U, U31C
DNA 1: CAATCTGAATTCCGGTCTCCC
DNA 2: TGGTGGCTACGACGGGATT
B16: UAUUAUC (DNA:RNA)
RNA: B1 RNA with G26A, G28U, C29A, A30U, U31C
DNA 1: CAATCTGAATTCCGGTCTCCC
DNA 2: TGGTGGCTACGACGGGATT
B17: UUGAAAA (DNA:RNA)
RNA: B1 RNA with G26U, U27G, G28A, C29A, U31A
DNA 1: CAATCTGAATTCCGGTCTCCC
DNA 2: TGGTGGCTACGACGGGATT
B18: UUGUAUU (DNA:RNA)
RNA: B1 RNA with G26U, U27G, G28U, C29A, A30U
DNA 1: CAATCTGAATTCCGGTCTCCC
DNA 2: TGGTGGCTACGACGGGATT
B19: CGACAUU (DNA:RNA)
RNA: B1 RNA with U25C, U27A, G28C, C29A, A30U
DNA 1: CAATCTGAATTCCGGTCTCCC
DNA 2: TGGTGGCTACGACGGGATT
B20: AGAUGGG (DNA:RNA)
RNA: B1 RNA with U25A, U27A, G28U, C29G, A30G, U31G
DNA 1: CAATCTGAATTCCGGTCTCCC
DNA 2: TGGTGGCTACGACGGGATT

Biological target: T1, RBFOX1 RRM RbFoxmut (Fox-RRM*)
Assay: EMSA; HiTS-Eq, 1 nM pool, 10 min; buffer printed only for the single-RNA assays: 10 mM Tris pH 7.5, 150 mM NaCl, 3.4 mM EDTA, 0.001% NP-40, 30 C
Conditions: tags: His6 N-terminal (pET28a); label: 5' 32P
In short: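 These values rest on relative association constants, computed from read-count changes of each RNA species versus the control reaction and normalised to the cognate motif. Reads came from free RNA recovered by 8% native PAGE after purified RbFox RRM (wild type or mutant) at increasing concentrations was equilibrated for 10 min in 50 µL with 1 nM of a 5′-radiolabelled pool with 7 randomized nucleotides and DNA-annealed flanks.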

| Binder | binding signal |
| --- | --- |
| B1 | 0.126 KA relative to UGCAUGU |
| B2 | 0.0925 KA relative to UGCAUGU |
| B3 | 0.0751 KA relative to UGCAUGU |
| B4 | 0.0917 KA relative to UGCAUGU |
| B5 | 0.106 KA relative to UGCAUGU |
| B6 | 0.144 KA relative to UGCAUGU |
| B7 | 0.0875 KA relative to UGCAUGU |
| B8 | 0.0363 KA relative to UGCAUGU |
| B9 | 0.0865 KA relative to UGCAUGU |
| B10 | 0.0885 KA relative to UGCAUGU |
| B11 | 0.118 KA relative to UGCAUGU |
| B12 | 0.0837 KA relative to UGCAUGU |
| B13 | 0.0498 KA relative to UGCAUGU |
| B14 | 0.108 KA relative to UGCAUGU |
| B15 | 0.0409 KA relative to UGCAUGU |
| B16 | 0.0758 KA relative to UGCAUGU |
| B17 | 0.0828 KA relative to UGCAUGU |
| B18 | 0.171 KA relative to UGCAUGU |
| B19 | 0.0528 KA relative to UGCAUGU |
| B20 | 0.0684 KA relative to UGCAUGU |
